Hit rate of the full screen: of about 44,000 compounds, about 340 (0.77%) were called active. Roughly 5% stayed inconclusive and do not appear here. The call rests on the fitted dose curve; in most records, active means well fitted inhibition curve with a large enough effect; inconclusive means small, poorly fitted or top-dose-only effect; inactive means flat fitted curve, though single readings scatter. The list shows a part of the results.
Experiment: Acumen qHTS Assay for Inhibitors of the mTORC1 Signaling Pathway in MEF (Tsc2-/-, p53-/-) Cells: Sytravon;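 further: plate controls were DMSO for no effect and rapamycin for full effect; nearly all actives have a fitted effect of over 50% in size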
Details: phospho-rpS6 immunofluorescence/PI, 24 h; series mostly up to 38.3 µM; activity change, negative = inhibition: at the top concentration
In short: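 Immunofluorescence of rpS6 phosphorylation in Tsc2-/-, p53-/- MEFs after 24 h compound exposure, normalized to propidium iodide signal. Activity is expressed as % positive cells, thresholded with 7.5 nM rapamycin.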

Activity change, negative = inhibition, inactive:
Fc1ccc(N2CCN(c3nc4ccccc4c4nc(-c5ccccc5)nn34)CC2)cc1 2.73%, COc1ccc(OCC(=O)Nc2ccc(-c3nc4cc(C)cc(C)c4o3)cc2)cc1 -8.03%, COc1ccc(CC(=O)Nc2nc3c(s2)CC(C)CC3)cc1 (stereo unspecified) -8.31%, Cc1ccc(NC(=O)C2CCCN(S(=O)(=O)c3ccc4[nH]c(=O)ccc4c3)C2)cc1Cl (stereo unspecified) -0.834%, COc1ccc2c(c1)c1c(c(=O)n(CCc3ccccc3)c(=O)n1Cc1cccc(Cl)c1)n2C -4.65%, O=C(NCc1cccc(Cl)c1)c1c2c(nc3ccccc13)C(=O)N(C1CCCCC1)C2 0.239%, CC(=O)Nc1cccc(NC(=O)c2cc3c(=O)n4cccc(C)c4nc3n2C)c1 -8.54%, CCOc1ccccc1Nc1ncnc2c1cnn2-c1ccc(C)cc1 5.73%, CCCn1cc(S(=O)(=O)c2ccc(C)cc2)c(=O)c2cc(F)c(N3CCCC3)cc21 0.353%, COc1cc(NC(=O)c2ccc(C)c(Cl)c2)ccc1NC(=O)c1cc2ccccc2o1 2.08%, CC1CN(C(=O)N2CCC(C(=O)NCCCc3ccccc3)CC2)c2cc(Cl)ccc2O1 (stereo unspecified) 3.76%, CCCCOc1ccc(CNC(=O)c2cccc(NC(=O)N3CCSc4ncccc43)c2)cc1 -2.36%, Cc1c(C(=O)NCc2ccc(Cl)cc2)oc2ccc3c(c12)C(=O)CC(C)(C)O3 -0.762%, Cc1ccc(CNC(=O)CSc2ncc3c(n2)-c2cc(Cl)ccc2N(C)S3(=O)=O)cc1 5.22%, O=C(CCc1nc(CN2CCN(S(=O)(=O)c3ccc(Br)cc3)CC2)no1)N1CCCCC1 -3.22%, CCOc1ccccc1C1CC(=O)Nc2c1c(=O)n(C)c1ncnn21 (stereo unspecified) -12.4%, CCc1nn(CC(=O)NC2CC2)c(=O)c2cc3c(OC)cccc3n12 -4.31%, CCCCNC(=O)C1CCCN(S(=O)(=O)CCC)C1 (stereo unspecified) 7.15%, COc1cc(NC(=O)Cn2c(=O)n(CC3CCC(C(=O)NCCc4ccccc4)CC3)c(=O)c3ccccc32)cc(OC)c1 (stereo unspecified) 1.84%, COc1cc2cc(CNc3ccccc3)c(=O)n(CC(=O)Nc3cccc(Cl)c3C)c2cc1OC -2.94%, COc1cccc(Cn2cc(C(=O)c3ccccc3)c(=O)c3cc4c(cc32)OCO4)c1 -1%, Cc1ccc(NCc2cccn2-c2nnc(N3CCC(C(=O)NCCc4ccc(Cl)cc4)CC3)s2)cc1 -0.498%, CCc1ccc(C(=O)c2cn(CC(=O)Nc3ccc4c(c3)OCCO4)c3ccc(F)cc3c2=O)cc1 -9.99%, COc1ccc(-n2c(C)nc3c(cnn3-c3ccc(F)cc3)c2=O)cc1 -9.3%, CCCCN(CC)CCCNC(=O)c1c(C)oc2ncnc(N3CCOCC3)c12 -2.15%, CCc1nn2c(=O)cc(COC(=O)c3cccc(NC(=O)CCc4ccccc4)c3)nc2s1 0.748%

— PubChem BioAssay AID493208 (National Center for Advancing Translational Sciences (NCATS), 2011)
